Reference: the supplement of paper PMC4604168 (melanoma cell lines)
The other results are listed elsewhere or left out. Single values are uncertain, as repeats are few or missing.

tested on: LOXIMVI; test: cell count relative to DMSO control; melanoma cells; higher = more viable cells; conditions: library dose: low library concentration; 72 h
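Also: cell number obtained by counting DAPI-stained nuclei in high-throughput microscope images with image analysis software, screen run in 1,536-well plates.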

| Compound | cell count [%] |
| --- | --- |
| Cc1cc(N2CCOCC2)cc2[nH]c(-c3c(NC[C@@H](O)c4cccc(Cl)c4)cc[nH]c3=O)nc12 + C/C(O)=C(\C#N)C(=O)Nc1cc(Br)ccc1Br [LFM-A13] (first compound 0.2 µM, partner dose 2 µM) | 97 |
| CN(C)S(=O)(=O)c1ccc2c(c1)/C(=C/c1cc3c([nH]1)CCCC3)C(=O)N2 + O=C(Oc1ccc([N+](=O)[O-])cc1)N1CCC(C(O)(c2ccc3c(c2)OCO3)c2ccc3c(c2)OCO3)CC1 [JZL184] (first compound 0.4 µM, partner dose 1 µM) | 115 |
| C/C(O)=C(\C#N)C(=O)Nc1cc(Br)ccc1Br + O=c1cc(-c2cccc3c2Sc2ccccc2S3)oc(N2CCOCC2)c1 [KU55933] (first compound 2 µM, partner dose 1 µM) | 112 |
| C/C(O)=C(\C#N)C(=O)Nc1cc(Br)ccc1Br + CCCCCCCCCCCC1=C(O)C(=O)C=C(O)C1=O [Embelin] (first compound 2 µM, partner dose 1.2 µM) | 81.1 |
| C/C(O)=C(\C#N)C(=O)Nc1cc(Br)ccc1Br + O=C(Oc1ccc([N+](=O)[O-])cc1)N1CCC(C(O)(c2ccc3c(c2)OCO3)c2ccc3c(c2)OCO3)CC1 [JZL184] (first compound 2 µM, partner dose 1 µM) | 86.9 |
| N#Cc1c(O)c2c(-c3ccc(-c4ccccc4O)cc3)csc2[nH]c1=O + O=C(Oc1ccc([N+](=O)[O-])cc1)N1CCC(C(O)(c2ccc3c(c2)OCO3)c2ccc3c(c2)OCO3)CC1 [JZL184] (first compound 2 µM, partner dose 1 µM) | 80.8 |
| Cn1nnc2c(C(N)=O)ncn2c1=O [temozolomide] + Cc1cc(SCc2sc(-c3ccc(C(F)(F)F)c(F)c3)nc2C)ccc1OCC(=O)O [GW0742] (first compound 2 µM, partner dose 2 µM) | 110 |
| NC1(c2ccc(-c3nc4ccn5c(=O)[nH]nc5c4cc3-c3ccccc3)cc2)CCC1 + C[As](C)SC[C@H](NC(=O)CC[C@H](N)C(=O)O)C(=O)NCC(=O)O [Darinaparsin] (first compound 0.4 µM, partner dose 0.4 µM) | 91.9 |
| COc1ccc(-c2ccc3c(N4CCOCC4)nc(N4C[C@@H](C)O[C@@H](C)C4)nc3n2)cc1CO + O=C(Oc1ccc([N+](=O)[O-])cc1)N1CCC(C(O)(c2ccc3c(c2)OCO3)c2ccc3c(c2)OCO3)CC1 [JZL184] (first compound 0.02 µM, partner dose 1 µM) | 67.1 |
| Cc1ccc(NC(=O)c2cccc(N(C)C)c2)cc1NC(=O)c1ccc(O)cc1 + O=C(Oc1ccc([N+](=O)[O-])cc1)N1CCC(C(O)(c2ccc3c(c2)OCO3)c2ccc3c(c2)OCO3)CC1 [JZL184] (first compound 2 µM, partner dose 1 µM) | 90.2 |
| Cn1sc(=O)n(Cc2ccccc2)c1=O + C[C@]12O[C@H](C[C@]1(O)CO)n1c3ccccc3c3c4c(c5c6ccccc6n2c5c31)CNC4=O [Lestaurtinib] (first compound 0.4 µM, partner dose 0.004 µM) | 89.4 |
| Cc1cc(SCc2sc(-c3ccc(C(F)(F)F)c(F)c3)nc2C)ccc1OCC(=O)O + Oc1cc(-c2nc(-c3ccccc3)[nH]c2-c2ccncc2)ccc1Cl [L779450] (first compound 2 µM, partner dose 0.2 µM) | 98.3 |
| O=S(=O)(c1ccccc1)N(CC(F)(F)F)c1ccc(C(O)(C(F)(F)F)C(F)(F)F)cc1 + Cc1cc(SCc2sc(-c3ccc(C(F)(F)F)c(F)c3)nc2C)ccc1OCC(=O)O [GW0742] (first compound 1.4 µM, partner dose 2 µM) | 96.5 |
| COC(=O)c1sccc1S(=O)(=O)Nc1ccc(Nc2ccccc2)cc1OC + C/C(O)=C(\C#N)C(=O)Nc1cc(Br)ccc1Br [LFM-A13] (first compound 1 µM, partner dose 2 µM) | 140 |
| Cc1ccc(Nc2nccc(N(C)c3ccc4c(C)n(C)nc4c3)n2)cc1S(N)(=O)=O [Pazopanib] + N.N.[Cl][Pt][Cl] [cisplatin] (first compound 0.4 µM, partner dose 1.6 µM) | 144 |
| COc1cc(Nc2ncc(F)c(Nc3ccc4c(n3)NC(=O)C(C)(C)O4)n2)cc(OC)c1OC [Tamatinib] + O=C(Oc1ccc([N+](=O)[O-])cc1)N1CCC(C(O)(c2ccc3c(c2)OCO3)c2ccc3c(c2)OCO3)CC1 [JZL184] (first compound 0.4 µM, partner dose 1 µM) | 85.5 |

tested on: MEL-HO; test: as above; conditions: library dose: low library concentration; 72 h

| Compound | cell count [%] |
| --- | --- |
| Cc1cc(N2CCOCC2)cc2[nH]c(-c3c(NC[C@@H](O)c4cccc(Cl)c4)cc[nH]c3=O)nc12 + O=C(Oc1ccc([N+](=O)[O-])cc1)N1CCC(C(O)(c2ccc3c(c2)OCO3)c2ccc3c(c2)OCO3)CC1 [JZL184] (first compound 0.2 µM, partner dose 1 µM) | 103 |
| COc1cc2c(Oc3ccc4[nH]c(C)cc4c3F)ncnc2cc1OCCCN1CCCC1 [cediranib] + O=C(Oc1ccc([N+](=O)[O-])cc1)N1CCC(C(O)(c2ccc3c(c2)OCO3)c2ccc3c(c2)OCO3)CC1 [JZL184] (first compound 0.4 µM, partner dose 1 µM) | 99.3 |
| CCN(CC)CCNC(=O)c1c(C)[nH]c(/C=C2\C(=O)Nc3ccc(F)cc32)c1C [sunitinib] + C[As](C)SC[C@H](NC(=O)CC[C@H](N)C(=O)O)C(=O)NCC(=O)O [Darinaparsin] (first compound 0.4 µM, partner dose 0.4 µM) | 108 |
| COc1ccc2c(c1)CCC1C2CCC2(C)C(NCCCCCCN3C(=O)C=CC3=O)CCC12 (configuration not stated) + C/C(O)=C(\C#N)C(=O)Nc1cc(Br)ccc1Br [LFM-A13] (first compound 0.4 µM, partner dose 2 µM) | 103 |
| COc1cc2c(Oc3ccc4[nH]c(C)cc4c3F)ncnc2cc1OCCCN1CCCC1 [cediranib] + Cc1cc(SCc2sc(-c3ccc(C(F)(F)F)c(F)c3)nc2C)ccc1OCC(=O)O [GW0742] (first compound 0.4 µM, partner dose 2 µM) | 87.5 |
| Cn1cncc1[C@@](N)(c1ccc(Cl)cc1)c1ccc2c(c1)c(-c1cccc(Cl)c1)cc(=O)n2C [tipifarnib] + Cc1cc(SCc2sc(-c3ccc(C(F)(F)F)c(F)c3)nc2C)ccc1OCC(=O)O [GW0742] (first compound 0.01 µM, partner dose 2 µM) | 99.6 |
| O=C(Nc1ccccc1)c1cc([N+](=O)[O-])ccc1Cl + Cc1cc(SCc2sc(-c3ccc(C(F)(F)F)c(F)c3)nc2C)ccc1OCC(=O)O [GW0742] (first compound 2 µM, partner dose 2 µM) | 104 |
| O=C(Oc1ccc([N+](=O)[O-])cc1)N1CCC(C(O)(c2ccc3c(c2)OCO3)c2ccc3c(c2)OCO3)CC1 + O=c1cc(-c2cccc3c2Sc2ccccc2S3)oc(N2CCOCC2)c1 [KU55933] (first compound 1 µM, partner dose 1 µM) | 113 |
| C[C@]1(c2nc3c(C(N)=O)cccc3[nH]2)CCCN1 [Veliparib] + C/C(O)=C(\C#N)C(=O)Nc1cc(Br)ccc1Br [LFM-A13] (first compound 1.4 µM, partner dose 2 µM) | 103 |
| O=C(Nc1ccccc1)c1cc([N+](=O)[O-])ccc1Cl + O=C(Oc1ccc([N+](=O)[O-])cc1)N1CCC(C(O)(c2ccc3c(c2)OCO3)c2ccc3c(c2)OCO3)CC1 [JZL184] (first compound 2 µM, partner dose 1 µM) | 94.1 |
| CCc1ccc(CCOc2ccc(CC3SC(=O)NC3=O)cc2)nc1 (configuration not stated) [pioglitazone] + O=C(Oc1ccc([N+](=O)[O-])cc1)N1CCC(C(O)(c2ccc3c(c2)OCO3)c2ccc3c(c2)OCO3)CC1 [JZL184] (first compound 2 µM, partner dose 1 µM) | 115 |
| O=C(Nc1cc(C(F)(F)F)cc(C(F)(F)F)c1)c1cc(Cl)ccc1O + Cn1cc(C2=C(c3cn(C4CCN(Cc5ccccn5)CC4)c4ccccc34)C(=O)NC2=O)c2ccccc21 [Enzastaurin] (first compound 0.016 µM, partner dose 0.8 µM) | 103 |
| Cc1ccc(Nc2nccc(N(C)c3ccc4c(C)n(C)nc4c3)n2)cc1S(N)(=O)=O [Pazopanib] + Cn1cc(C2=C(c3cn(C4CCN(Cc5ccccn5)CC4)c4ccccc34)C(=O)NC2=O)c2ccccc21 [Enzastaurin] (first compound 0.4 µM, partner dose 0.8 µM) | 109 |
| O=C(Nc1cc(C(F)(F)F)cc(C(F)(F)F)c1)c1cc(Cl)ccc1O + N.N.[Cl][Pt][Cl] [cisplatin] (first compound 0.016 µM, partner dose 1.6 µM) | 106 |
| O=C(Nc1cccc(Cl)c1)Nc1ncc(CCNc2ncnc3ccsc23)s1 + O=C(Oc1ccc([N+](=O)[O-])cc1)N1CCC(C(O)(c2ccc3c(c2)OCO3)c2ccc3c(c2)OCO3)CC1 [JZL184] (first compound 0.0008 µM, partner dose 1 µM) | 92 |
| N#Cc1c(O)c2c(-c3ccc(-c4ccccc4O)cc3)csc2[nH]c1=O + Cc1cc(SCc2sc(-c3ccc(C(F)(F)F)c(F)c3)nc2C)ccc1OCC(=O)O [GW0742] (first compound 2 µM, partner dose 2 µM) | 125 |
